These results are taken from PubChem BioAssay (NCI).

Structures are written as SMILES.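 1) Cells in 96-well plates. 2) Compound, 48 h, 5 concentrations. 3) Linear interpolation between surrounding doses. 4) Unreached endpoint = highest concentration. Here, GI50 denotes the concentration required for 50% inhibition of growth. Definition used: TGI = concentration required for complete inhibition of growth.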 Activity calls are given as the source filed them. No stated cut-off is given here; in the data, active means GI50 below about 0.43 µM; inactive means the rest.

In this assay the test system is NCI-H322M lung. Put plainly: inhibition of tumour cell growth, NCI panel, 48 h.
`Cc1cc(O)c(C(=O)O)c2c1C(=O)c1c(O)c(OCC(O)C(O)C(O)C(O)CO)c(O)c(O)c1C2=O` (stereo not drawn) (tested in a mixture with another compound): the TGI was above 100 µM.

Take `FC(F)(F)c1nnn[n-]1.[Au+].c1ccc([PH+](c2ccccc2)c2ccccc2)cc1`: the GI50 is 16.1 µM and the TGI came out at 29.8 µM. Consider `CCc1cccc(C)c1NC(=O)C1=C(C)NC(C)=C(C(=O)Nc2c(C)cccc2CC)C1c1ccc([N+](=O)[O-])cc1`, for which the TGI was above 100 µM.

For `CCOC(=O)C1(O)C(=O)C2=C3C(=O)OC(C4OC(=O)c5c(c(O)c(O)c(O)c5C31)-c1c(cc(O)c(O)c1O)C(=O)OC1COC(=O)c3cc(O)c(O)c(O)c3-c3c(cc(O)c(O)c3O)C(=O)OC14)[C@@H]2O` (stereo partly drawn), the TGI was above 100 µM. `O=C(/C=C/c1ccc(Cl)cc1)/C=C/c1cc2ccccc2[nH]c1=O`: the GI50 was 13.9 µM and the TGI came out at 48 µM. As to `CC1CC(C)CC(NC2=NCCO2)C1` (stereo not drawn), the TGI is above 100 µM. Regarding `CCc1ccc(CNCC(O)c2ccccc2)cc1` (stereo not drawn), the GI50 is 22.8 µM and the TGI was determined as 92.7 µM. For the compound `O=C1C=CC(=O)N1C1CCCCCCCCCCC1`, the GI50 was 63.4 µM and the TGI was above 100 µM.

Compound `Cc1nn(C2OC(CO)C(O)C(F)C2O)c(=O)[nH]c1=O` (stereo not drawn) returned a TGI above 100 µM. On the same count and under the same terms, to `O=C1CC(=O)NC(=NN2C(=O)CSC2c2ccccc2)N1` (stereo not drawn) belongs above 100 µM; to `COC(=O)[C@H](NC(=O)OC(C)(C)C)[C@H]1COC(C)(C)O1`, above 100 µM; to `O=C1CCCCCCCCCCC(=O)N2CCOCCOCCN1Cc1cccc(n1)C2`, above 100 µM.

For `OC1(c2ccccc2)c2ccccc2NC2=NCCN21` (stereo not drawn), the TGI is above 100 µM. Still for that read-out and setting: to `C1CSCCCSCCCSCCCSCCCSC1` belongs above 100 µM; to `Nc1nc(-c2ccccc2)c(Cl)c(-c2cc(Cl)ccc2O)n1`, above 100 µM. `Cc1cc(O)c(C=O)c2c1C(=O)Oc1c(CO)c(O)c3c(c1O2)C(O)OC3=O` (stereo not drawn) gave a TGI above 100 µM. As for `COc1ccc2[nH]c(-c3ccccc3)c(/C=C(\C#N)S(=O)(=O)c3ccccc3)c2c1`, the GI50 was 30.1 µM and the TGI was above 100 µM. For the compound `Clc1ccccc1/C=C\C1(c2ccccc2)OCCO1`, the TGI is above 100 µM. In the case of `O=[N+]([O-])c1ccc2c(c1)Sc1ccccc1N2CCCCCl`, the TGI was above 100 µM. `Cc1cc(C)c(S(=O)(=O)N2CCN(S(=O)(=O)c3c(C)cc(C)cc3C)OCCCCCO2)c(C)c1` displayed a TGI above 100 µM. In the case of `O=[N+]([O-])c1ccc(C2=NN(c3ccccc3)C[N+](c3ccc(Br)cc3)=N2)cc1`, the TGI was above 100 µM. As to `CN1CCc2c(c3ccccc3c3ccccc23)C1`, the GI50 is 4.35 µM and the TGI came out at 22.5 µM. Compound `COc1ccc(/C=C2\C(=O)N(C(=O)c3ccc(NC(C)=O)cc3)N=C2C)cc1` returned a TGI above 100 µM.

`CCCC1C(CC)C(NC)C(C#N)(C#N)C1(C#N)C#N` (stereo not drawn) showed a TGI of 42 µM. On the same count and under the same terms, to `[C-]#[N+][C@@H]1C2[C@H](CC[C@@]1(C)O)C(=C)CC[C@@H]2[C@@]1(C)CC[C@H](Cl)C(C)(C)O1` (stereo partly drawn) belongs 30.2 µM; to `CCN(CC)CCOc1ccc(N2C(=O)c3cccc4cc([N+](=O)[O-])cc(c34)C2=O)cc1`, 33.5 µM. Regarding `CN(C)N=Nc1ccccc1`, the TGI is above 100 µM. The compound `CC(C)c1cc(Cl)nc(Cl)n1` gave a TGI above 100 µM.

Compound `C#C[C@]1(O)CC[C@H]2[C@@H]3CCC4=CC(=NCCOC(=O)c5cccc6c(=O)c7ccccc7[nH]c56)CC[C@@H]4[C@H]3CC[C@@]21C` came in with a TGI above 100 µM. On to `O=C(O)CNC(=O)C(CS)Cc1ccccc1` (stereo not drawn), for which the GI50 is above 25 µM and the TGI is above 25 µM. The compound `COc1ccc(C2C(Cl)C(=O)N2NC(=O)c2ccc(N)cc2)cc1` (stereo not drawn) registered a TGI above 100 µM. `O=S(=O)(Nc1ccccc1)c1ccc(-c2c3nc(c(-c4ccc(S(=O)(=O)Nc5ccccc5)cc4)c4ccc([nH]4)c(-c4ccc(S(=O)(=O)Nc5ccccc5)cc4)c4nc(c(-c5ccc(S(=O)(=O)Nc6ccccc6)cc5)c5ccc2[nH]5)C=C4)C=C3)cc1` came in with a TGI above 31.6 µM. In turn, `O=C(CC1C(=O)Nc2ccccc2S1=O)Nc1ccccc1` (stereo not drawn) returned a TGI above 100 µM. In the case of `Cc1cc(N(CCC#N)CCC#N)ccc1/C=C\C(=O)Nc1ccccc1`, the TGI is above 100 µM. As to `O=c1c2cc(F)ccc2sc2c(N3CCNCC3)nc3ccccc3c12`, the GI50 was 1.58 µM and the TGI is 2.96 µM. Take `COc1cc(OC)cc(-n2c(N)c(C#N)c3ccc([N+](=O)[O-])cc3c2=O)c1`: the TGI turned out to be 66.6 µM. Same read-out and setting: the same measure for `COc1cc(C(=O)NC(CCN)(c2ccccc2)c2ccccc2)cc(OC)c1OC`: above 100 µM. In turn, `CSC1=NN(c2ccccc2)C(=O)C1=C(SC)SC` registered a TGI of 79 µM. `COc1ccc(S(=O)(=O)N/N=C\c2cc([N+](=O)[O-])cc(I)c2O)c(OC)c1OC`: the TGI worked out at 99.5 µM. `O=c1c2cc([N+](=O)[O-])ccc2[nH]n1Cc1ccccn1`: the TGI was above 100 µM. `C[N+](C)(CCNC(=O)c1cccc2cc3ccccc3nc12)Cc1ccc([N+](=O)[O-])cc1` yielded a TGI above 100 µM.

In the case of `C=CC1(CC)/C(=N\O)C(CC)(CC)C(=O)N1O` (stereo not drawn), the TGI is above 100 µM. `CC(=O)[CH-]C(C)=O.CC(=O)[CH-]C(C)=O.CC(=O)[CH-]C(C)=O.[In+3]`: the GI50 was above 100 µM and the TGI is above 100 µM. With `CC1=NN(c2nc(N)nc(C(C#N)C(=O)c3cc4c(cc3Cl)Sc3nccn3S4(=O)=O)n2)C(C)(C)C1` (stereo not drawn), the TGI is above 100 µM. With `CC(=O)NCCc1c(-c2[nH]c3ccccc3c2CCNC(C)=O)[nH]c2ccccc12`, the TGI was above 100 µM. Take `COc1cccc2c1C(=O)c1c(O)c3c(c(O)c1C2=O)C[C@@](O)(C(C)O)C[C@@H]3OC1CC(N)C(O)C(C)O1` (stereo partly drawn): the GI50 was 3.86 µM and the TGI is above 59.6 µM. In turn, `Cc1cc(S(=O)(=O)n2ccnc2Oc2cccc(Cl)c2)c(SSc2cc(Cl)c(C)cc2S(=O)(=O)n2ccnc2Oc2cccc(Cl)c2)cc1Cl` returned a TGI above 100 µM.

Consider `CC(CC[C@@H](C)C1CCC2[C@@H]3CC(O)C4CC(O)[C@@H](O)C[C@]4(C)C3CC[C@@]21C)C(C)(C)C` (stereo partly drawn), for which the TGI is above 100 µM. In the case of `CC(C)=C1C(=O)C[C@@]2(C)C[C@H]3OC3(C)CC/C=C(/C)CCC12` (stereo partly drawn), the outcome was inactive. `CN(C)c1ccc(C(=O)NCCCCCCC(=O)NO)cc1` returned a TGI of 16.8 µM. On to `O=P(O)(NCCCl)NCCCl`, for which the GI50 was above 100 µM and the TGI was above 100 µM. As to `O=C(Oc1ccc(S(=O)(=O)F)cc1F)c1ccccc1Cl`, the TGI is above 100 µM. `CC(C)=CCc1c(O)c(CC=C(C)C)c2oc(-c3ccc(O)cc3O)c(CC=C(C)C)c(=O)c2c1O` returned a TGI of 25.4 µM.

In turn, `Cc1cc(NS(=O)(=O)c2ccc(NC(=O)c3cccn4c(=O)c5ccccc5nc34)cc2)no1` came in with a TGI above 100 µM. In turn, `O=C(O)c1cc(C(=O)O)nc(C(=O)O)c1` displayed a TGI above 100 µM.

`O=C(Cn1ccnc1[N+](=O)[O-])c1ccccc1` registered a TGI above 100 µM. `N#CC1CNC(N)NC1N` (stereo not drawn): the TGI is above 100 µM.

Take `CCOc1nc(-c2ccccc2)cc2c(O)c(C(=O)N/N=C/c3ccc(O)cc3O)[nH]c(=O)c12`: the GI50 was 0.934 µM and the TGI was above 62.2 µM.

Turning to `NCCN.NCCN.[Cl-].[O]=[Os+2]=[O]`, the GI50 was above 100 µM and the TGI is above 100 µM.

In the case of `Nc1ccc(C(c2ccccc2)(c2ccccc2)c2ccccc2)cc1`, the TGI was above 100 µM.
